Experimental data as given in the supplement of paper PMC11417369.
This is one part of the list.

tested on: PfAP2-HC AP2 domain (GST-tagged); test: gcPBM binding intensity (ln(normalized median fluorescence intensity)); higher = stronger DNA binding
How it was run: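 Using an Agilent 4 × 180k array, primer-extended double-stranded 36-bp intergenic genomic probes and negative controls were exposed for 1 h to GST-fused P. falciparum DNA-binding domains expressed in E. coli. Binding was carried out in 1× PBS with 1% milk, 0.2 mg/ml BSA, 0.5% salmon testes DNA and 0.03% Triton X-100, and protein was detected with Alexa488 anti-GST antibody and a 488 nm scan. Binding intensity is the highest Masliner-normalised natural-log median intensity across replicate spots of either probe orientation.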

Row | Sequence | gcPBM binding intensity (ln)
1 | ATTCATATATATTATACACACACATATATAAATATA [CACACA_site8228] | 10
2 | AAAAATACCTGAATATGTACATATGATCAATGGGCC [XGTACX_site887] | 9.83
3 | TAAAAATATAAATTTTGTACGTAAAAAATGGTTCTT [XGTACX_site1506] | 9.67
4 | AATTATACTTCCTTCACACAGTTACATCATATATTA [CACACA_site5942] | 9.83
5 | ATTCACATACATTACTTACACACCATATTAATATAT [CACACA_site459] | 10.1
6 | TAAAAAATAAGATATACACACATATATATATATATA [CACACA_site2324] | 9.89
7 | AAAAAAAAAAAAAAGGAACACACAAGTAACAATAAA [CACACA_site8792] | 9.9
8 | TAACATATTAATAACATATTTATAATATATTAATAA [TGCATGCA_negctrl_site243] | 9.42
9 | CCACATTAAAAAAAAACACACATATATTATAGATAT [CACACA_site6662] | 9.73
10 | AATGTACGTTTTATAACACACACACTAATAAAAAAA [CACACA_site9286] | 10.1
11 | ATCTTCAAAAATATTAGTACACATGTATCATGAATT [XGTACX_site3872] | 9.58
12 | TAGATACATACACGCACACACATATATATATATATA [CACACA_site12] | 10.5
13 | CACTAAAATAGACACACACACACACGGATATAAATA [CACACA_site7873] | 10.8
14 | CTTAAATTTAAGTTCACACATATTGGTCATTTATAT [CACACA_site5006] | 9.81
15 | TTTATTTGTAACGGTTGTACTTGTATATCATTATGA [XGTACX_site4281] | 9.63
16 | TAGTGATATAATTATGTGCACTTAATACAGGTCGAT | 9.8
17 | GATATTTTTTTCGAAAGTACAAAAAAAAATATTTCC [XGTACX_site4389] | 9.28
18 | AAAATTAAAAATAACACACACATATATATATTTATA [CACACA_site2776] | 10.1
19 | ATATATATACCAAGTAGTACATTCTACAACTAATGT [XGTACX_site8653] | 9.64
20 | ATGTATATATATATATGTACTAATTAGTAGTTTACG [XGTACX_site6272] | 10
21 | TGTATGTATAAAAACGCATGTATGTATTTTACAATA [TGCATGCA_site767] | 9.66
22 | TACTAAGAATTAATATAACAAAATAAAAAAAAAAAA [XGTACX_negctrl_site346] | 9.44
23 | ATACAGATATATAATACACACATAAATGTAACATTT [CACACA_site5864] | 10.1

Row | Sequence | gcPBM binding intensity (ln)
24 | TTTGCCCAAAAAGGTACACACCACAATGTACATAAA [CACACA_site4599] | 9.63
25 | TCATATATGGGTAGTATACACACTGTATATTTAGGA [CACACA_site2844] | 9.72
26 | TTTTATTTAAATACACGTACATAATGTATATATATA [XGTACX_site7160] | 9.65
27 | AAAAAAAAAAAACACACACACACAAATATATAAAAA [CACACA_site1171] | 10.6
28 | TTTGAAAAAAATTAATGTACATTTGAAATGACATAT [XGTACX_site3902] | 9.38
29 | GTATAAAAGTTATATACACACAACAGAATTACATAT [CACACA_site6212] | 9.96
30 | ATACCTTCTTTTATGTTTAATTAATATACTTTTTAT [CACACA_negctrl_site1557] | 9.92
31 | AATACATACATACATACACACATATAAATATATTAT [CACACA_site7650] | 10.2
32 | TACTAATATAATAAAAGTACTTAAATAAATATATGT [XGTACX_site2220] | 9.64
33 | GAACATTTCACACAAAAAAAAAAAAATATATATATA [TGCATGCA_negctrl_site518] | 9.54
34 | TCTTTTTAAATATATACACACCGTGTCTACAGATAC [CACACA_site5784] | 9.88
35 | ACATGATGTCATAAATGTACGCACACATACATAAAC [XGTACX_site1198] | 9.93
36 | TAAATAAAAAAAAATCGTACATATATTTTATATATG [XGTACX_site3293] | 9.47
37 | TTTTCAAAAATATACACACACATAAATATCTGTATA [CACACA_site4586] | 10
38 | TATTTACATTTTAGTAGTACATATATGTATATATAT [XGTACX_site6839] | 9.77
39 | TCGTAATAATAGTTGAGTACGCACTAATATGTCAAT [XGTACX_site643] | 9.85
40 | AATTATATGCTTAATACGCACACGGGAAAAAAAAAA [CACACA_site1376] | 9.89
41 | TGTTTGTAATTATGTATGCACTTTTTTGTATGTGTG [GTGCAC_site9668] | 9.88
42 | ACATATCTATCGTTTTTAATTGTATATTATTATAAC [TGCATGCA_negctrl_site144] | 9.76
43 | TCTTGTATATGTTAAAGTACACAACAATATATATAT [XGTACX_site6814] | 9.6
44 | AGAAAAAAACAACATGCACACGCACCCACAAAAAAA [CACACA_site7908] | 10.4
45 | TAATGAGCGCTTGTAGTGCATTATATTCAAAAATAT | 9.47
